# Test results taken from the supplement of paper PMC8728848.
# The list shows a part of the results.
# Tests used:
# Assay in all cases: glycan array binding signal (z-score within array); higher = stronger binding
# Settings in all cases: glycan notation: IUPAC condensed, linker removed
# Neu5Ac(a2-6)GalNAc = target: Neu5Ac(a2-6)GalNAc
# How it was run: (§1)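 Glycan array data came from 3228 arrays in the Consortium for Functional Glycomics database, and only arrays with an available protein sequence were kept. Glycan names were put into IUPAC-condensed notation, and columns mapping to the same glycan were averaged. The binding signal is a within-array Z-score, averaged across arrays of one protein sequence run at different concentrations or buffers and across linkers. A negative Z-score can be read as non-binding.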
# [1] = target: Neu5Ac(a2-6)GalNAc(b1-4)GlcNAc
# How it was run: as §1
# [2] = target: Neu5Ac(a2-6)GlcNAc(b1-4)GlcNAc
# How it was run: as §1
# [3] = target: Neu5Ac(a2-6)GlcNAc(b1-4)GlcNAc(b1-4)GlcNAc
# How it was run: as §1
# Neu5Ac(a2-8)Neu5Ac = target: Neu5Ac(a2-8)Neu5Ac
# How it was run: as §1
# [4] = target: Neu5Ac(a2-8)Neu5Ac(a2-3)Gal(b1-4)Glc
# How it was run: as §1
# [5] = target: Neu5Ac(a2-8)Neu5Ac(a2-3)[GalNAc(b1-4)]Gal(b1-4)Glc
# How it was run: as §1
# [6] = target: Neu5Ac(a2-8)Neu5Ac(a2-8)Neu5Ac
# How it was run: as §1
# [7] = target: Neu5Ac(a2-8)Neu5Ac(a2-8)Neu5Ac(a2-3)Gal(b1-4)Glc
# How it was run: as §1
# [8] = target: Neu5Ac(a2-8)Neu5Ac(a2-8)Neu5Ac(a2-3)[GalNAc(b1-4)]Gal(b1-4)Glc
# How it was run: as §1
# [9] = target: Neu5Ac(a2-8)Neu5Ac(a2-8)Neu5Ac(a2-8)Neu5Ac(a2-3)[GalNAc(b1-4)]Gal(b1-4)Glc
# How it was run: as §1
# [10] = target: Neu5Ac(b2-6)Gal(b1-4)GlcNAc
# How it was run: as §1
# Neu5Ac(b2-6)GalNAc = target: Neu5Ac(b2-6)GalNAc
# How it was run: as §1
# [11] = target: Neu5Ac9Ac(a2-3)Gal(b1-3)GlcNAc
# How it was run: as §1
# [12] = target: Neu5Ac9Ac(a2-3)Gal(b1-4)GlcNAc
# How it was run: as §1
# [13] = target: Neu5Ac9Ac(a2-6)Gal(b1-4)GlcNAc
# How it was run: as §1
# [14] = target: Neu5Gc(a2-3)Gal(b1-3)GlcNAc
# How it was run: as §1
# [15] = target: Neu5Gc(a2-3)Gal(b1-3)[Fuc(a1-4)]GlcNAc
# How it was run: as §1
# Neu5Gc(a2-3)Gal(b1-4)Glc = target: Neu5Gc(a2-3)Gal(b1-4)Glc
# How it was run: as §1
# [16] = target: Neu5Gc(a2-3)Gal(b1-4)GlcNAc
# How it was run: as §1
# [17] = target: Neu5Gc(a2-3)Gal(b1-4)[Fuc(a1-3)]GlcNAc
# How it was run: as §1
# [18] = target: Neu5Gc(a2-6)Gal(b1-4)GlcNAc
# How it was run: as §1
# Neu5Gc(a2-6)GalNAc = target: Neu5Gc(a2-6)GalNAc
# How it was run: as §1
# [19] = target: Neu5Gc(b2-6)Gal(b1-4)GlcNAc
# How it was run: as §1
binder,measurement,setting,value
"DC-ASPGR (Homo sapiens), CLC10_HUMAN (protein) LDQNSKFQRDLVTLRTDFSNFTSNTVAEIQALTSQGSSLEETIASLKAEVEGFKQERQAVHSEMLLRVQQLVQDLKKLTCQVATLNNNASTEGTCCPVNWVEHQDSCYWFSHSGMSWAEAEKYCQLKNAHLVVINSREEQNFVQKYLGSAYTWMGLSDPEGAWKWVDGTDYATGFQNWKPGQPDDWQGHGLGGGEDCAHFHPDGRWNDDVCQRPYHWVCEAGLGQTSQESHVEPKSCDKTHTCPPCPAPELLGGPSVFLFPPKPKDTLMISRTPEVTCVVVDVSHEDPEVKFNWYVDGVEVHNAKTKPREEQFNSTYRVVSVLTVLHQDWLNGKEYKCKVSNKGLPSSIEKTISKAKGQPREPQVYTLPPSQEEMTKNQVSLTCLVKGFYPSDIAVEWESNGQPENNYKTTPPVLDSDGSFFLYSRLTVDKSRWQEGNVFSCSVMHEALHNHYTQK",glycan array binding signal (z-score),Neu5Ac(a2-6)GalNAc,1.36
same,glycan array binding signal (z-score),[1],1.09
same,glycan array binding signal (z-score),[2],-0.141
same,glycan array binding signal (z-score),[3],-0.064
same,glycan array binding signal (z-score),Neu5Ac(a2-8)Neu5Ac,-0.131
same,glycan array binding signal (z-score),[4],-0.223
same,glycan array binding signal (z-score),[5],1.71
same,glycan array binding signal (z-score),[6],-0.096
same,glycan array binding signal (z-score),[7],-0.244
same,glycan array binding signal (z-score),[8],0.973
same,glycan array binding signal (z-score),[9],1.03
same,glycan array binding signal (z-score),[10],-0.157
same,glycan array binding signal (z-score),Neu5Ac(b2-6)GalNAc,-0.194
same,glycan array binding signal (z-score),[11],-0.192
same,glycan array binding signal (z-score),[12],-0.099
same,glycan array binding signal (z-score),[13],-0.235
same,glycan array binding signal (z-score),[14],-0.3
same,glycan array binding signal (z-score),[15],-0.188
same,glycan array binding signal (z-score),Neu5Gc(a2-3)Gal(b1-4)Glc,-0.215
same,glycan array binding signal (z-score),[16],-0.231
same,glycan array binding signal (z-score),[17],-0.224
same,glycan array binding signal (z-score),[18],-0.279
same,glycan array binding signal (z-score),Neu5Gc(a2-6)GalNAc,-0.263
same,glycan array binding signal (z-score),[19],-0.266
